Measured values: the supplement of paper PMC4967469
Lines with a small IC50 respond at low doses; a fit beyond the top or the lowest dose is shown as a bound at that dose. The AUC spans the tested range (256-fold, ending at the top dose) of the same fit; values near 1 show little effect. For some of these results: Any top dose called inferred was derived from the fitted curves, not read from the paper. For some of these results: Drugs with an entry number were screened twice under separate entries, and the two screens often disagree.

What was measured:
Test in all cases: Viability of human cancer cell lines after 72 h of drug (GDSC screen)
KU-55933 = compound: O=c1cc(-c2cccc3c2Sc2ccccc2S3)oc(N2CCOCC2)c1 [KU-55933]; details: top dose 10 µM
Description: (§1)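 Human cancer cell lines in 384-well plates, medium with 10% serum, drug for 72 h over a 256-fold dose range (nine 2-fold or five 4-fold steps up to the top dose). Adherent lines were fixed and stained with the nucleic acid dye Syto60, suspension lines read with resazurin; signal relative to control wells, capped at 0 and 100%. One two-parameter sigmoid per drug and line, fitted in a mixed model over all curves with the slope shared within a line.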

ABT-888 = compound: C[C@]1(c2nc3c(C(N)=O)cccc3[nH]2)CCCN1 [ABT-888]; details: top dose 5 µM; top dose inferred
Description: as §1

CHIR-99021 = compound: Cc1cnc(-c2cnc(NCCNc3ccc(C#N)cn3)nc2-c2ccc(Cl)cc2Cl)[nH]1 [CHIR-99021]
Description: as §1

GSK269962A = compound: CCn1c(-c2nonc2N)nc2cnc(Oc3cccc(NC(=O)c4ccc(OCCN5CCOCC5)cc4)c3)cc21 [GSK269962A]; details: top dose inferred
Description: as §1

Thapsigargin = compound: C/C=C(/C)C(=O)O[C@H]1C(C)=C2[C@H]([C@@H]1OC(=O)CCCCCCC)[C@@](C)(OC(C)=O)C[C@H](OC(=O)CCC)[C@@]1(O)[C@H]2OC(=O)[C@@]1(C)O [Thapsigargin]; details: top dose 0.512 µM; top dose inferred
Description: as §1

CP466722 = compound: COc1cc2ncnc(-n3nc(-c4ccccn4)nc3N)c2cc1OC [CP466722]; details: top dose 16 µM; top dose inferred
Description: as §1

(5Z)-7-Oxozeaenol = compound: COc1cc(O)c2c(c1)/C=C/C[C@H](O)[C@H](O)C(=O)/C=C\C[C@H](C)OC2=O [(5Z)-7-Oxozeaenol]; details: top dose 10 µM; top dose inferred
Description: as §1

Zibotentan = compound: COc1nc(C)cnc1NS(=O)(=O)c1cccnc1-c1ccc(-c2nnco2)cc1 [Zibotentan]; details: top dose 20 µM; top dose inferred
Description: as §1

Cytarabine = compound: Nc1ccn([C@@H]2O[C@H](CO)[C@@H](O)[C@@H]2O)c(=O)n1 [Cytarabine]; details: top dose 2 µM
Description: as §1

CMK = compound: Cc1ccc(-c2c(C(=O)CCl)n(CCCO)c3ncnc(N)c23)cc1 [CMK]; details: top dose 4 µM; top dose inferred
Description: as §1

MPS-1-IN-1 = compound: COc1cc(N2CCC(O)CC2)ccc1Nc1cc(Nc2ccccc2S(=O)(=O)C(C)C)c2cc[nH]c2n1 [MPS-1-IN-1]; details: top dose 20 µM; top dose inferred
Description: as §1

ABT-869 = compound: Cc1ccc(F)c(NC(=O)Nc2ccc(-c3cccc4[nH]nc(N)c34)cc2)c1 [ABT-869]; details: top dose 1.024 µM; top dose inferred
Description: as §1

QL-X-138 = compound: C=CC(=O)Nc1cc(-n2c(=O)ccc3cnc4ccc(-c5cn[nH]c5)cc4c32)ccc1C [QL-X-138]; details: top dose 10.24 µM; top dose inferred
Description: as §1

[1] = top dose 2.56 µM, screen: GDSC drug entry 154
[2] = top dose 10 µM, screen: GDSC drug entry 1241, top dose inferred
[3] = top dose 2.5 µM, screen: GDSC drug entry 127
[4] = top dose 5 µM, screen: GDSC drug entry 1192

Cell Line	AUC (KU-55933)	IC50 (KU-55933) [µM]	AUC (ABT-888)	IC50 (ABT-888) [µM]	AUC (CHIR-99021; [1])	IC50 (CHIR-99021; [1]) [nM]	AUC (CHIR-99021; [2])	IC50 (CHIR-99021; [2]) [nM]	AUC (GSK269962A; [3])	IC50 (GSK269962A; [3]) [nM]	AUC (GSK269962A; [4])	IC50 (GSK269962A; [4]) [nM]	AUC (Thapsigargin)	IC50 (Thapsigargin) [nM]	AUC (CP466722)	IC50 (CP466722) [nM]	AUC ((5Z)-7-Oxozeaenol)	IC50 ((5Z)-7-Oxozeaenol) [µM]	AUC (Zibotentan)	IC50 (Zibotentan) [µM]	AUC (Cytarabine)	IC50 (Cytarabine) [nM]	AUC (CMK)	IC50 (CMK) [µM]	AUC (MPS-1-IN-1)	IC50 (MPS-1-IN-1) [µM]	AUC (ABT-869)	IC50 (ABT-869) [nM]	AUC (QL-X-138)	IC50 (QL-X-138) [nM]
CMK (acute myeloid leukaemia, suspension)	0.96	> 10	0.987	> 5	0.978	> 2560	0.966	> 10000	0.786	907	0.847	2870	0.547	42.2	0.627	2110	0.67	1.71	0.981	> 20	0.867	1360	0.95	> 4	0.85	11.7	0.991	> 1020		
DJM-1 (skin, adherent)	0.974	> 10	0.986	> 5	0.986	> 2560			0.986	> 2500			0.439	21.8	0.919	> 16000			0.987	> 20	0.862	1680	0.974	> 4	0.912	> 20	0.987	> 1020	0.859	8330
DOHH-2 (B-cell lymphoma, suspension)	0.977	> 10	0.973	> 5	0.986	> 2560			0.844	1720			0.336	11.3							0.828	1200	0.671	0.738						
EB2 (Burkitt lymphoma, suspension)	0.99	> 10	0.99	> 5	0.99	> 2560	0.989	> 10000	0.957	> 2500	0.972	> 5000	0.342	12.2	0.501	1000	0.814	4.83	0.99	> 20	0.99	> 2000	0.95	> 4	0.911	> 20	0.988	> 1020		
EHEB (lymphoid neoplasm, suspension)	0.971	> 10	0.962	> 5	0.978	> 2560	0.975	> 10000			0.739	2110	0.661	110			0.731	3.9			0.968	> 2000	0.942	> 4						
EW-24 (Ewing sarcoma, semi-adherent)	0.974	> 10	0.986	> 5	0.992	> 2560	0.991	> 10000	0.968	> 2500	0.91	> 5000			0.973	> 16000	0.964	> 10	0.992	> 20	0.969	> 2000	0.993	> 4	0.974	> 20	0.993	> 1020	0.992	> 10200
GCIY (stomach, adherent)	0.9	> 10	0.984	> 5	0.975	> 2560			0.937	> 2500			0.567	50.2	0.742	5460			0.98	> 20	0.866	> 2000	0.844	3.42	0.952	> 20	0.983	> 1020	0.643	1680
GDM-1 (acute myeloid leukaemia, suspension)	0.985	> 10	0.987	> 5	0.979	> 2560	0.986	> 10000	0.51	166	0.678	955	0.561	46.6	0.589	1740	0.486	0.574	0.971	> 20	0.98	> 2000	0.929	> 4	0.724	5.22	0.176	7.15		
IM-9 (myeloma, suspension)	0.967	> 10	0.99	> 5	0.992	> 2560	0.917	> 10000	0.992	> 2500	0.936	> 5000	0.959	> 512			0.605	1.16			0.982	> 2000	0.97	> 4						
JSC-1 (B-cell lymphoma, suspension)	0.971	> 10	0.982	> 5	0.987	> 2560							0.645	80	0.655	2680			0.983	> 20	0.812	1060	0.851	3.02	0.794	9.06	0.983	> 1020	0.395	330
LB647-SCLC (small cell lung carcinoma, semi-adherent)	0.954	> 10	0.985	> 5	0.979	> 2560	0.983	> 10000	0.976	> 2500	0.885	> 5000	0.255	5.74	0.846	13800	0.738	3.3			0.809	1190	0.786	1.95						
